Data as given in the antibiotic and cytotoxicity screens of Wong et al. (2023).
The list shows a part of the results.

Key:
HSkMC = human skeletal muscle cells; test: cytotoxicity call (relative viability < 0.9); details: 10 µM
HepG2 = test: cytotoxicity call (relative viability < 0.9); details: 10 µM
S. aureus RN4220 = test: growth inhibition call (relative growth <= 0.2); details: 50 µM

Compound	cytotoxicity call (HSkMC)	cytotoxicity call (HepG2)	growth inhibition call (S. aureus RN4220)
COCC(=O)Nc1c(I)c(C(=O)NC[C@@H](O)CO)c(I)c(C(=O)N(C)C[C@@H](O)CO)c1I	inactive	inactive	inactive
CCC(=O)OC1C(OC2C(C)C(OC3CC(C)(OC)C(O)C(C)O3)C(C)C(=O)OC(CC)C(C)(O)C(O)C(C)C(=O)C(C)CC2(C)O)OC(C)CC1N(C)C.CCCCCCCCCCCCOS(=O)(=O)O (stereo not drawn)	inactive	inactive	inactive
O=C(C[C@H]1CC[C@H]2[C@@H](COC[C@H](O)CN2C(=O)Nc2ccc(F)cc2)O1)NCCCN1CCOCC1	inactive	inactive	inactive
CSc1ccc(Sc2ccc(SC)cc2)cc1	inactive	inactive	inactive
CC(=O)N(C)C[C@@H]1Oc2ncc(C#CC(C)(C)O)cc2C(=O)N([C@@H](C)CO)C[C@H]1C	inactive	inactive	inactive
CC(C)NC(=O)N(C)C[C@@H]1Oc2ccc(NC(=O)Nc3ccc4c(c3)OCO4)cc2C(=O)N([C@H](C)CO)C[C@H]1C	inactive	inactive	inactive
C=CC1=C(C)c2cc3[nH]c(cc4nc(cc5[nH]c(cc1n2)c(C)c5CCC(=O)O)C(CCC(=O)O)=C4C)c(C)c3C=C	inactive	active	inactive
C[C@@H]1CCCCO[C@H](CN(C)S(=O)(=O)c2ccc(Cl)cc2)[C@H](C)CN([C@H](C)CO)C(=O)c2cc(NC(=O)C3CCCCC3)ccc2O1	inactive	active	inactive
C[C@H](CO)N1C[C@H](C)[C@@H](CN(C)C(=O)Nc2ccc(C(F)(F)F)cc2)Oc2c(NC(=O)c3ccc(-c4nccs4)cc3)cccc2C1=O	inactive	inactive	inactive
C[C@H](CO)N1C[C@H](C)[C@@H](CN(C)C(=O)Cc2ccncc2)Oc2cc(C#CC3CCCCC3)ccc2S1(=O)=O	inactive	inactive	inactive
COCC#Cc1cnc2c(c1)C(=O)N([C@H](C)CO)C[C@H](C)[C@@H](CN(C)C(=O)CCN1CCCCC1)O2	inactive	inactive	inactive
O=C(C[C@@H]1C[C@H]2c3cc(NC(=O)Nc4ccc(C(F)(F)F)cc4)ccc3O[C@H]2[C@H](CO)O1)NCc1ccc(Cl)cc1	active	inactive	inactive
COc1ccc(S(=O)(=O)N(C)C[C@@H]2Oc3c(NS(=O)(=O)c4cccs4)cccc3C(=O)N([C@@H](C)CO)C[C@@H]2C)cc1	inactive	inactive	inactive
Cc1noc(C)c1S(=O)(=O)N(C)C[C@H]1Oc2c(NC(=O)NC(C)C)cccc2C(=O)N([C@H](C)CO)C[C@H]1C	inactive	inactive	inactive
C[C@H](CO)N1C[C@H](C)[C@H](CN(C)C(=O)c2ccncc2)OCCCC[C@H](C)Oc2ccc(NC(=O)CCCCCC(=O)Nc3ccccc3N)cc2C1=O	inactive	inactive	inactive
C=CC1(C)CC(=O)C2(O)C(C)(O1)C(OC(C)=O)C(O)C1C(C)(C)CCC(O)C12C (stereo not drawn)	inactive	inactive	inactive
c1coc(-c2nc3ccccc3n2CCC2CCCCC2)c1	inactive	inactive	inactive
C[C@@H]1CCCCO[C@H](CN(C)C(=O)NC2CCCCC2)[C@H](C)CN([C@@H](C)CO)C(=O)c2cc(NS(=O)(=O)c3cccs3)ccc2O1	inactive	inactive	inactive
CC(=O)N(C[C@@H](O)CO)c1c(I)c(C(=O)NCCO)c(I)c(C(=O)NC[C@@H](O)CO)c1I	inactive	inactive	inactive
Cc1noc(C)c1NC(=O)N(C)C[C@@H]1Oc2ccc(NC(=O)c3ccncc3)cc2C(=O)N([C@H](C)CO)C[C@@H]1C	inactive	inactive	inactive
C[C@@H]1CN([C@@H](C)CO)C(=O)c2cc(NC(=O)NC3CCCCC3)ccc2O[C@@H](C)CCCCO[C@@H]1CN(C)CC1CCCCC1	inactive	inactive	inactive
C[C@@H]1CN([C@@H](C)CO)C(=O)c2cc(NS(=O)(=O)c3cccs3)ccc2O[C@@H](C)CCCCO[C@@H]1CN(C)Cc1ccccc1	inactive	inactive	inactive
C[C@@H]1CN([C@H](C)CO)C(=O)c2cccc(NC(=O)C3CCOCC3)c2O[C@@H]1CN(C)S(=O)(=O)c1ccc(F)cc1	inactive	inactive	inactive
C[C@H]1CN([C@@H](C)CO)C(=O)c2cccc(NC(=O)Nc3ccccc3)c2O[C@H]1CN(C)C(=O)Nc1cccc2ccccc12	inactive	inactive	inactive
Cc1noc(C)c1S(=O)(=O)N(C)C[C@H]1Oc2ccc(NC(=O)NC3CCCCC3)cc2C(=O)N([C@H](C)CO)C[C@H]1C	inactive	inactive	inactive
COc1ccc2c3c([nH]c2c1)[C@H](CO)N(C[C@]13CN(C1)S(=O)(=O)c1cn(cn1)C)C(=O)Nc1ccc(cc1)F	inactive	inactive	inactive

Compound	cytotoxicity call (HSkMC)	cytotoxicity call (HepG2)	growth inhibition call (S. aureus RN4220)
CC(C)(C)[S@@](=O)N1Cc2cc(C(=O)NCc3ccccc3F)nc(-c3cccc(-c4ccncc4)c3)c2[C@H]1CCO	inactive	inactive	inactive
C[C@@H]1CCCCO[C@H](CN(C)C(=O)c2ccncc2)[C@@H](C)CN([C@H](C)CO)C(=O)c2cc(NC(=O)C3CCCCC3)ccc2O1	inactive	inactive	inactive
C[C@H]1CN([C@@H](C)CO)C(=O)c2cc(C#CC3CCCC3)cnc2O[C@@H]1CN(C)S(=O)(=O)c1cccc(F)c1	inactive	active	inactive
C[C@@H]1CN([C@H](C)CO)C(=O)c2cc(NS(=O)(=O)c3ccc(Cl)cc3)ccc2O[C@@H](C)CCCCO[C@@H]1CN(C)S(=O)(=O)c1ccc(Cl)cc1	inactive	inactive	inactive
COCc1cn(CC[C@H]2CC[C@H](NC(=O)CCN3CCCCC3)[C@@H](CO)O2)nn1	inactive	inactive	inactive
COC(=O)C[C@H]1CC[C@H]2[C@@H](COC[C@@H](O)CN2S(=O)(=O)c2ccccc2C)O1	inactive	inactive	inactive
C[C@H](CO)N1C[C@H](C)[C@H](CN(C)C(=O)Nc2ccc(C(F)(F)F)cc2)OCCCC[C@H](C)Oc2ccc(NC(=O)Nc3ccc(C(F)(F)F)cc3)cc2C1=O	active	inactive	inactive
COc1ccc(NC(=O)Nc2ccc3c(c2)C(=O)N([C@H](C)CO)C[C@H](C)[C@H](CN(C)CC2CC2)OCCCC[C@H](C)O3)cc1	inactive	inactive	inactive
C#CCN(C)Cc1ccccc1.Cl	inactive	inactive	inactive
C[C@H](CO)N1C[C@H](C)[C@H](CN(C)Cc2ccc(C(=O)O)cc2)OCCCC[C@H](C)Oc2ccc(NS(=O)(=O)c3ccc(F)cc3)cc2C1=O	inactive	inactive	inactive
C[C@@H]1CCCCO[C@@H](CN(C)Cc2ccc(C(=O)Nc3ccccc3N)cc2)[C@@H](C)CN([C@H](C)CO)C(=O)c2cc(NC(=O)Nc3ccccc3)ccc2O1	inactive	inactive	inactive
COc1ccc(S(=O)(=O)Nc2ccc3c(c2)C(=O)N([C@H](C)CO)C[C@H](C)[C@@H](CN(C)C(=O)Nc2c(C)noc2C)OCCCC[C@H](C)O3)cc1	inactive	inactive	inactive
O=[N+]([O-])c1cncn1CCN1CCOCC1	inactive	inactive	inactive
O=S(=O)(OC[C@H]1O[C@@](COS(=O)(=O)[O][Al]([OH])[OH])(O[C@H]2O[C@H](COS(=O)(=O)[O][Al]([OH])[OH])[C@@H](OS(=O)(=O)[O][Al]([OH])[OH])[C@H](OS(=O)(=O)[O][Al]([OH])[OH])[C@H]2OS(=O)(=O)[O][Al]([OH])[OH])[C@@H](OS(=O)(=O)[O][Al]([OH])[OH])[C@@H]1OS(=O)(=O)[O][Al]([OH])[OH])[O][Al]([OH])[OH].[OH][Al]([OH])[OH].[OH][Al]([OH])[OH].[OH][Al]([OH])[OH].[OH][Al]([OH])[OH].[OH][Al]([OH])[OH].[OH][Al]([OH])[OH].[OH][Al]([OH])[OH].[OH][Al]([OH])[OH]	inactive	inactive	inactive
Cc1noc(C)c1NC(=O)N(C)C[C@@H]1Oc2ccc(NC(=O)Nc3cccc4ccccc34)cc2CC(=O)N([C@H](C)CO)C[C@H]1C	inactive	inactive	inactive
C[C@H](CO)N1C[C@H](C)[C@@H](CN(C)Cc2ccccc2)Oc2c(NC(=O)c3ccc(-c4nccs4)cc3)cccc2C1=O	inactive	inactive	inactive
O=C(C[C@@H]1CC[C@@H]2[C@H](COC[C@H](O)CN2C(=O)c2ccncc2)O1)NCc1ccc(-c2ccccc2)cc1	inactive	inactive	inactive
COc1cc(C(=O)N2CCOCC2)cc(OC)c1OC	inactive	inactive	inactive
Cc1ccccc1S(=O)(=O)N1C[C@H](O)COC[C@@H]2O[C@@H](CC(=O)NCCc3ccccc3)CC[C@H]21	inactive	inactive	inactive
C[C@@H]1CCCCO[C@@H](CN(C)Cc2ccc(C(F)(F)F)cc2)[C@H](C)CN([C@H](C)CO)C(=O)c2cc(NS(=O)(=O)c3cccs3)ccc2O1	inactive	active	inactive
C[C@@H]1CCCCO[C@@H](CN(C)C(=O)Nc2cccc3ccccc23)[C@@H](C)CN([C@H](C)CO)C(=O)c2cc(NC(=O)Nc3ccc4c(c3)OCO4)ccc2O1	inactive	inactive	inactive
Cc1noc(C)c1NC(=O)Nc1ccc2c(c1)C(=O)N([C@@H](C)CO)C[C@@H](C)[C@@H](CN(C)S(=O)(=O)c1cccs1)OCCCC[C@H](C)O2	inactive	inactive	inactive
COc1ccc(NC(=O)Nc2ccc3c(c2)C(=O)N([C@@H](C)CO)C[C@@H](C)[C@@H](CN(C)Cc2ccc(C(=O)O)cc2)OCCCC[C@@H](C)O3)cc1	inactive	inactive	inactive
O=C(C[C@@H]1CC[C@@H]2[C@H](COC[C@H](O)CN2S(=O)(=O)c2ccc(F)cc2)O1)N[C@@H]1CCN(Cc2ccccc2)C1	inactive	inactive	inactive
Cc1noc(C)c1S(=O)(=O)Nc1cccc2c1O[C@H](CN(C)S(=O)(=O)c1cccs1)[C@H](C)CN([C@H](C)CO)C2=O	inactive	inactive	inactive
